This is one part of the list.
How the values were obtained:
HSkMC = human skeletal muscle cells; assay: cytotoxicity call (relative viability < 0.9); settings: 10 µM
HepG2 = assay: cytotoxicity call (relative viability < 0.9); settings: 10 µM
S. aureus RN4220 = assay: growth inhibition call (relative growth <= 0.2); settings: 50 µM

C[C@@H]1CCCCO[C@H](CN(C)C(=O)Cc2ccccc2)[C@H](C)CN([C@@H](C)CO)C(=O)c2cc(NC(=O)Nc3cccc4ccccc34)ccc2O1
cytotoxicity call (HSkMC): inactive | cytotoxicity call (HepG2): inactive | growth inhibition call (S. aureus RN4220): inactive

Cc1noc(C)c1S(=O)(=O)N(C)C[C@@H]1Oc2ccc(NC(=O)CCCN(C)C)cc2CC(=O)N([C@@H](C)CO)C[C@H]1C
cytotoxicity call (HSkMC): inactive | cytotoxicity call (HepG2): inactive | growth inhibition call (S. aureus RN4220): inactive

CCNC(=O)C[C@@H]1CC[C@H](NC(=O)C2CC2)[C@H](CO)O1
cytotoxicity call (HSkMC): inactive | cytotoxicity call (HepG2): inactive | growth inhibition call (S. aureus RN4220): inactive

Cc1noc(C)c1S(=O)(=O)N(C)C[C@H]1OCCCC[C@@H](C)Oc2ccc(NS(=O)(=O)c3cn(C)cn3)cc2C(=O)N([C@H](C)CO)C[C@@H]1C
cytotoxicity call (HSkMC): inactive | cytotoxicity call (HepG2): inactive | growth inhibition call (S. aureus RN4220): inactive

C[C@@H]1CN([C@H](C)CO)S(=O)(=O)c2ccc(C#CCN(C)C)cc2O[C@H]1CN(C)Cc1ccccn1
cytotoxicity call (HSkMC): inactive | cytotoxicity call (HepG2): inactive | growth inhibition call (S. aureus RN4220): inactive

Fc1cncnc1
cytotoxicity call (HSkMC): inactive | cytotoxicity call (HepG2): inactive | growth inhibition call (S. aureus RN4220): inactive

Cc1noc(C)c1S(=O)(=O)N(C)C[C@@H]1Oc2ccc(NC(=O)Nc3ccccc3)cc2CC(=O)N([C@H](C)CO)C[C@H]1C
cytotoxicity call (HSkMC): inactive | cytotoxicity call (HepG2): inactive | growth inhibition call (S. aureus RN4220): inactive

COC(=O)c1c2oc(c1C(=O)OC)C(=O)N[C@H](Cc1ccccc1)Cn1cc(nn1)[C@H](Cc1ccccc1)NC(=O)N[C@@H](COC(=O)NCCCCCC(=O)NO)CC2
cytotoxicity call (HSkMC): inactive | cytotoxicity call (HepG2): inactive | growth inhibition call (S. aureus RN4220): inactive

OC[C@@H]1CN(CCN2CCOCC2)C[C@H](n2cnc3c(NC4CC4)ncnc32)O1
cytotoxicity call (HSkMC): inactive | cytotoxicity call (HepG2): inactive | growth inhibition call (S. aureus RN4220): inactive

c1nc(N2CCOCC2)nc(N2CCOCC2)n1
cytotoxicity call (HSkMC): inactive | cytotoxicity call (HepG2): inactive | growth inhibition call (S. aureus RN4220): inactive

CCn1nnc2c(N3CCOCC3)ncnc21
cytotoxicity call (HSkMC): inactive | cytotoxicity call (HepG2): inactive | growth inhibition call (S. aureus RN4220): inactive

C[C@@H]1CN([C@@H](C)CO)C(=O)c2cc(NC(=O)CCC(F)(F)F)ccc2O[C@@H](C)CCCCO[C@@H]1CN(C)C(=O)Nc1cccc2ccccc12
cytotoxicity call (HSkMC): inactive | cytotoxicity call (HepG2): inactive | growth inhibition call (S. aureus RN4220): inactive

Cc1cc(C)n(C(N)=S)n1
cytotoxicity call (HSkMC): inactive | cytotoxicity call (HepG2): inactive | growth inhibition call (S. aureus RN4220): inactive

CC#CCn1c(N2CCC[C@@H](N)C2)nc2c1c(=O)n(Cc1nc(C)c3ccccc3n1)c(=O)n2C
cytotoxicity call (HSkMC): inactive | cytotoxicity call (HepG2): active | growth inhibition call (S. aureus RN4220): inactive

Cc1noc(C)c1NC(=O)Nc1ccc2c(c1)C(=O)N([C@H](C)CO)C[C@@H](C)[C@@H](CN(C)Cc1ccc(-c3ccccc3)cc1)O2
cytotoxicity call (HSkMC): inactive | cytotoxicity call (HepG2): inactive | growth inhibition call (S. aureus RN4220): inactive

Cc1noc(C)c1NC(=O)N(C)C[C@H]1Oc2ccc(NS(=O)(=O)c3cn(C)cn3)cc2CC(=O)N([C@H](C)CO)C[C@@H]1C
cytotoxicity call (HSkMC): inactive | cytotoxicity call (HepG2): inactive | growth inhibition call (S. aureus RN4220): inactive

C[C@@H]1CN([C@@H](C)CO)C(=O)c2cc(NC(=O)C3CCCCC3)ccc2O[C@@H](C)CCCCO[C@@H]1CN(C)C(=O)Cc1ccccc1
cytotoxicity call (HSkMC): inactive | cytotoxicity call (HepG2): inactive | growth inhibition call (S. aureus RN4220): inactive

CCCc1nc2c(C)cc(-c3nc4ccccc4n3C)cc2n1Cc1ccc(-c2ccccc2C(=O)O)cc1
cytotoxicity call (HSkMC): inactive | cytotoxicity call (HepG2): inactive | growth inhibition call (S. aureus RN4220): inactive

C[C@@H]1CCCCO[C@H](CN(C)C(=O)c2ccccc2)[C@H](C)CN([C@@H](C)CO)C(=O)c2cc(NC(=O)Nc3cccc4ccccc34)ccc2O1
cytotoxicity call (HSkMC): inactive | cytotoxicity call (HepG2): inactive | growth inhibition call (S. aureus RN4220): inactive

CN(Cc1ccccn1)C(=O)[C@@]12COC[C@@H]1CN(S(C)(=O)=O)C2
cytotoxicity call (HSkMC): inactive | cytotoxicity call (HepG2): inactive | growth inhibition call (S. aureus RN4220): inactive

CC(C)NC(=O)Nc1ccc2c(c1)CC(=O)N([C@H](C)CO)C[C@H](C)[C@H](CN(C)Cc1ccc(Oc3ccccc3)cc1)O2
cytotoxicity call (HSkMC): inactive | cytotoxicity call (HepG2): inactive | growth inhibition call (S. aureus RN4220): inactive

OCc1c[nH]c2ccccc12
cytotoxicity call (HSkMC): inactive | cytotoxicity call (HepG2): active | growth inhibition call (S. aureus RN4220): inactive

Cc1noc(C)c1S(=O)(=O)N(C)C[C@@H]1Oc2ccc(NS(=O)(=O)c3ccc(F)cc3)cc2C(=O)N([C@H](C)CO)C[C@@H]1C
cytotoxicity call (HSkMC): inactive | cytotoxicity call (HepG2): inactive | growth inhibition call (S. aureus RN4220): inactive

C[C@@H]1CCCCO[C@@H](CN(C)C(=O)Nc2cccc3ccccc23)[C@H](C)CN([C@H](C)CO)C(=O)c2cc(NC(=O)NC3CCCCC3)ccc2O1
cytotoxicity call (HSkMC): inactive | cytotoxicity call (HepG2): inactive | growth inhibition call (S. aureus RN4220): inactive

Cc1cccc(C(=O)N2CCC[C@@H](Cn3cc(C(C)(C)N)nn3)C2)c1C
cytotoxicity call (HSkMC): inactive | cytotoxicity call (HepG2): inactive | growth inhibition call (S. aureus RN4220): inactive

COc1ccc(S(=O)(=O)Nc2ccc3c(c2)C(=O)N([C@H](C)CO)C[C@H](C)[C@@H](CN(C)Cc2ccc(C(=O)O)cc2)OCCCC[C@@H](C)O3)cc1
cytotoxicity call (HSkMC): inactive | cytotoxicity call (HepG2): inactive | growth inhibition call (S. aureus RN4220): inactive

Cc1ccc(S(=O)(=O)N(C)C[C@@H]2OCCCC[C@H](C)Oc3ccc(NC(=O)C4CCCCC4)cc3C(=O)N([C@@H](C)CO)C[C@@H]2C)cc1
cytotoxicity call (HSkMC): inactive | cytotoxicity call (HepG2): inactive | growth inhibition call (S. aureus RN4220): inactive

Reference: the antibiotic and cytotoxicity screens of Wong et al. (2023)
